# According to PubChem BioAssay AID720709 (National Center for Advancing Translational Sciences (NCATS), 2013):
# About 520 (0.14%) of roughly 360,000 compounds were called active. The inconclusive results got no clear call from the source; some entries with a clear call stand among them for comparison. The call rests on the fitted dose curve; in most records, active means well fitted inhibition curve with a large enough effect; inconclusive means small, poorly fitted or top-dose-only effect; inactive means no such curve, though single readings can be large or run the other way. Potencies of inconclusive entries are left out as doubtful fits.
# Target: Rap guanine nucleotide exchange factor 3 (Homo sapiens) (UniProt O95398)
# Chain of UniProt O95398 (O95398 whole entry, looked up): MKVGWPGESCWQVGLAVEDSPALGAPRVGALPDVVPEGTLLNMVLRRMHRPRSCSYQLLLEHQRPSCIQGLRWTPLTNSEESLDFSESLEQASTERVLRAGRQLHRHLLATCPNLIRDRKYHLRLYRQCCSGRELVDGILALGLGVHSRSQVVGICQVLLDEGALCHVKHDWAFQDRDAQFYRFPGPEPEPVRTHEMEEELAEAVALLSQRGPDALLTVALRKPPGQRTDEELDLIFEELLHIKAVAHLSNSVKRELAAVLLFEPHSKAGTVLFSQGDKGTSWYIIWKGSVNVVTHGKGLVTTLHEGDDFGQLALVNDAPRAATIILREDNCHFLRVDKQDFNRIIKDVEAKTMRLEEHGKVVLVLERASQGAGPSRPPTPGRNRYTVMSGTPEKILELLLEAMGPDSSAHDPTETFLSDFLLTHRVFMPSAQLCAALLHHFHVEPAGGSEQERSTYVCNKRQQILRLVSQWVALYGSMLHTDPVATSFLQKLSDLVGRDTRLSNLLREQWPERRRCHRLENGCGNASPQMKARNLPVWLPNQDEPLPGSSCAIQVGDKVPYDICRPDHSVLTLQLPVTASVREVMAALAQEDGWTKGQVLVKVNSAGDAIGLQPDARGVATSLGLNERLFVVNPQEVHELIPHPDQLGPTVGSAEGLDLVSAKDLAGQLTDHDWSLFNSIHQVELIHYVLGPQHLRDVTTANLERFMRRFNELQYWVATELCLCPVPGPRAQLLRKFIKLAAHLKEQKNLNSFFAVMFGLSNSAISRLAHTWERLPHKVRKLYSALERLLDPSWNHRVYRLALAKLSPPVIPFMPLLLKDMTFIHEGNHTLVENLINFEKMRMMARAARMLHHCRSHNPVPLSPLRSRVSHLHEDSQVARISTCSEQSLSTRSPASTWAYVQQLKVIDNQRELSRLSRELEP
# Assay: qHTS for Antagonist of cAMP-regulated guanine nucleotide exchange factor 3 (EPAC1): primary screen; further: nearly all actives have a fitted effect of over 50% in size;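 on activity change, negative = inhibition: plate controls were vehicle for no effect and positive control for full effect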
# Conditions: EPAC1 GEF assay, Rap1b-BODIPY-GDP exchange fluorescence; activity change, negative = inhibition: at 115 µM (top of the series)
# Potency means the concentration at half of the fitted maximal effect; tags describe the fitted curve by direction and shape.
SMILES,"activity change, negative = inhibition",Potency
CCN1C/C(=C/c2ccc(N3CCOCC3)cc2)C(=O)/C(=C/c2ccc(N3CCOCC3)cc2)C1,inactive: 38.7%,–
CCOC(=O)c1c(NC(=O)COC(=O)c2ccc(NC(=O)CC#N)cc2)sc(C(=O)NC)c1C,–,"inconclusive [inhibitor, partial curve]"
CSc1ccccc1OCc1cc(C(=O)N2CCCC2c2nonc2C)no1 (stereo not drawn),–,"inconclusive [inhibitor, full curve, poor fit]"
CCCn1c(N)c(C(=O)CSc2nnc(Cc3ccccc3)o2)c(=O)n(C)c1=O,–,"inconclusive [inhibitor, single point]"
Nc1ccc2cn[nH]c2c1,inactive: 0.0517%,–
Cc1cccc(Cn2nc(C)cc2NC(=O)Cn2cc([N+](=O)[O-])cn2)c1,–,"inconclusive [inhibitor, single point]"
CC(C)C[C@H](NC(=O)c1[nH]cnc1C(=O)N[C@@H](C)c1ccccc1)C(=O)OC(C)(C)C,–,"inconclusive [inhibitor, full curve, poor fit]"
Cc1ccc(NNC(=S)Nc2ccc(C(C)C)cc2)c(C)c1,inactive: -21.9%,–
Nc1nc(=S)c2ncn(C3OC(CO)C(O)C3O)c2[nH]1 (stereo not drawn),–,"inconclusive [inhibitor, full curve]"
c1coc(-c2ccc3nncn3c2)c1,–,"inconclusive [inhibitor, full curve]"
Cc1cc(N2CCCC2)nc2ccccc12,–,"inconclusive [inhibitor, partial curve]"
CCOC(=O)c1cccc(NC(=O)COc2nsnc2N2CCOCC2)c1,–,"inconclusive [inhibitor, single point]"
COc1cccc(Nc2ccccc2C(=O)O)c1,–,"inconclusive [inhibitor, partial curve]"
CN(C)c1ccc(NC(=O)COC(=O)c2ccc3c(c2)OCO3)cc1,inactive: 8.76%,–
NS(=O)(=O)c1ccc(NC(=O)COC(=O)c2ccc(S(=O)(=O)N3CCOCC3)cc2)cc1,–,"inconclusive [inhibitor, single point]"
O=C(NCCCCc1ccccc1)c1cccc(NC(=O)C2CC2)c1,inactive: -10.7%,–
CCC1(C)NC(=O)N(CC(=O)N2N=C(c3ccccc3)CC2c2ccc(OC)cc2)C1=O (stereo not drawn),–,"inconclusive [inhibitor, partial curve]"
CCn1c(=O)c2cc(C(=O)N(C)CC(OC)OC)sc2c2ccccc21,–,"inconclusive [inhibitor, partial curve]"
COc1cccc(C(O)c2nc(-c3cccc(C(C)C)c3)cs2)c1 (stereo not drawn),inactive: -9.51%,–
Cc1ccc(NC(=O)c2cccc(NC(=O)/C=C/c3ccco3)c2)cc1C,–,"inconclusive [inhibitor, partial curve]"
COC(=O)c1ccc(N2CCN(C(C)=O)CC2)c(NC(=O)COc2ccccc2C)c1,–,"inconclusive [inhibitor, partial curve, poor fit]"
CCC(=O)N1CCc2cc(S(=O)(=O)NCCC(=O)N3CCN(c4cccc(OC)c4)CC3)ccc21,–,"inconclusive [inhibitor, full curve]"
Cc1ccc(S(=O)(=O)N2[C@H](CC(=O)c3cccs3)OC[C@@H]2C)cc1,inactive: -2.72%,–

SMILES,"activity change, negative = inhibition",Potency
CCOC(=O)c1nc(C)nc(Sc2n[nH]c(-c3cc(Cl)cc(Cl)c3)n2)c1C,–,"inconclusive [inhibitor, single point]"
CCc1cc2c(SCC#N)ncnc2s1,–,"inconclusive [inhibitor, single point]"
Cc1ccc(NC(=O)c2cc(S(=O)(=O)NCCC3=CCCCC3)ccc2F)cc1F,–,"inconclusive [inhibitor, full curve]"
CC(C)C(NC(=O)C1CCCCC1)C(=O)Nc1ccc2c(c1)OCCO2 (stereo not drawn),inactive: 13.4%,–
O=C(CN1C(=O)c2ccccc2S1(=O)=O)NCCSCc1cccc(Cl)c1,–,"inconclusive [inhibitor, partial curve]"
O=C(CSc1nccc2ccccc12)N1CCN(Cc2ccc3c(c2)OCO3)CC1,–,"inconclusive [inhibitor, partial curve]"
Cc1ccc(/C=N/NC(=O)C(O)c2ccccc2)o1 (stereo not drawn),inactive: -8.24%,–
COc1ccccc1Nc1nc(-c2cccc(N3C(=O)c4ccccc4C3=O)c2)cs1,inactive: 12.1%,–
Cc1nc(SCc2ccc(Cl)c(Cl)c2)ncc1C(=O)O,–,"inconclusive [inhibitor, partial curve]"
COc1ccccc1CNS(=O)(=O)c1ccc2c(c1)NC(=O)C(C)S2 (stereo not drawn),inactive: -23.2%,–
CC1CCN(C2CC(=O)N(c3ccc(Br)cc3Br)C2=O)CC1 (stereo not drawn),inactive: 4.3%,–
COc1ccc(N(C(=O)CNC(=O)c2cccs2)C(C(=O)NC2CCCC2)c2cccnc2)cc1 (stereo not drawn),–,"inconclusive [inhibitor, full curve, poor fit]"
C/C(=C\C(=O)Nc1nccs1)c1ccccc1,–,"inconclusive [inhibitor, single point]"
O=C1c2ccccc2C(=O)C12OC2c1ccc(Cl)cc1Cl (stereo not drawn),–,"inconclusive [inhibitor, single point]"
CCCCSc1nc2c(c(=O)n1CC)SC(C)C2 (stereo not drawn),–,"inconclusive [inhibitor, single point]"
COc1ccc(N2CCN(C(=O)CCNC(=O)c3ccccc3)CC2)cc1,–,"inconclusive [inhibitor, single point]"
O=C(Nc1ccc(Cl)cc1)c1cccc(N2C(=O)C3C4CCC(C4)C3C2=O)c1 (stereo not drawn),–,"inconclusive [inhibitor, full curve, poor fit]"
CCOC(=O)c1c2ccccc2[n+]([O-])n1CCO,–,"inconclusive [inhibitor, full curve, poor fit]"
CC(=O)N1CC2(CC(c3ccccc3F)=NO2)CN1c1ccc(Cl)cc1 (stereo not drawn),–,"inconclusive [inhibitor, single point]"
CCCOc1ccccc1OCC(=O)Nc1cc(Cl)ccc1-n1cncn1,–,"inconclusive [inhibitor, single point]"
O=C(CSc1nc2ccccc2c(=O)[nH]1)c1ccc(O)c(O)c1,–,"inconclusive [inhibitor, partial curve]"
Cc1ccc(NC(=O)[C@H](NC(=O)[C@@H]2Cc3ccccc3CN2)c2ccccc2)cc1C,–,"inconclusive [inhibitor, partial curve]"
Clc1ccc2nc(CSc3ccccc3)cn2c1,–,"inconclusive [inhibitor, full curve, poor fit]"

SMILES,"activity change, negative = inhibition",Potency
COc1ccc(N(CC(=O)N/N=C/c2cc(Br)c(C)o2)S(=O)(=O)c2ccc(NC(C)=O)cc2)cc1,–,"inconclusive [inhibitor, partial curve]"
O=C(/C=C/c1ccccc1Cl)c1ccc(O)cc1,–,"inconclusive [inhibitor, single point]"
COc1ccc(OCC(O)CN2CCN(Cc3ccc4c(c3)OCO4)CC2)cc1 (stereo not drawn),inactive: -2.07%,–
CC(Sc1nncn1C)C(=O)Nc1nnc(C(C)C)s1 (stereo not drawn),–,"inconclusive [inhibitor, single point]"
COc1ccc(-n2c(C)cc(C(=O)CCl)c2C)cc1,inactive: -29.5%,–
O=C(CSc1ccsc1[N+](=O)[O-])Nc1cccc(F)c1,–,"inconclusive [inhibitor, partial curve]"
O=C(COc1ccc2ccccc2c1Br)N1CCCC1,–,"inconclusive [inhibitor, partial curve]"
COc1ccc2[nH]c3c(NCCCOC(C)C)ncnc3c2c1,–,"inconclusive [inhibitor, single point]"
CC(C)OCCCNC(=O)C1CCC(CNS(=O)(=O)c2ccccc2)CC1 (stereo not drawn),inactive: 16%,–
Fc1cccc(Nc2nc3ccccc3n3nnnc23)c1,–,"inconclusive [inhibitor, single point]"
CC1CC(=O)Nc2ccccc2N1C(=O)COc1ccc2cc(Br)ccc2c1 (stereo not drawn),–,"inconclusive [inhibitor, partial curve]"
CC(=O)N1c2ccc(S(=O)(=O)N3CCCC3)cc2CC1C(=O)Nc1cc(C)cc(C)c1 (stereo not drawn),–,"inconclusive [inhibitor, partial curve]"
O=C(c1ccc(C(F)(F)F)cc1)N1CCC(=O)N(C(COCc2ccccc2)Cc2ccccc2)CC1 (stereo not drawn),–,"inconclusive [inhibitor, single point]"
Cc1cccc(Cn2c(N3CCN(CCO)CC3)nc3c2c(=O)[nH]c(=O)n3C)c1,–,"inconclusive [inhibitor, partial curve, poor fit]"
Nn1c(SCc2ccccc2)nc2ccccc21,inactive: 7.33%,–
CC1(C)CC(=O)N(c2ccc(Cl)cc2Cl)C(=O)C1,–,"inconclusive [inhibitor, full curve, poor fit]"
Cc1ccc(NC(=O)Cn2cc(S(=O)(=O)c3ccccc3)c(=O)c3cc(F)ccc32)cc1,–,"inconclusive [inhibitor, partial curve, poor fit]"
Cc1[nH]c2ccc(C(=O)NCCCN3CCCCC3)cc2c1C,inactive: 0.951%,–
O=C(/C=C/c1ccc([N+](=O)[O-])cc1)c1ccccc(=O)c1O,inactive: -13.9%,–
C[C@@H]1NS(=O)(=O)c2cc(Cl)ccc2O[C@@H]1c1ccccc1,–,"inconclusive [inhibitor, single point]"
COc1ccc(-c2nc(NC(=O)c3ccco3)sc2C)cc1,–,"inconclusive [inhibitor, partial curve, poor fit]"
CC(C)c1ccc(C(CC(=O)c2ccc(Cl)cc2)C(=O)O)cc1 (stereo not drawn),–,"inconclusive [inhibitor, full curve, poor fit]"
